In the supplement of paper PMC4604168 (melanoma cell lines):
The other results are listed elsewhere or left out. Most values come without repeats; read them as rough.

Tests used:
Experiment in all cases: cell count relative to DMSO control; melanoma cells; higher = more viable cells
Details in all cases: library dose: standard library concentration; 72 h
G361 = test system: G361
IPC-298 = test system: IPC-298
IST-MEL1 = test system: IST-MEL1
LB2518-MEL = test system: LB2518-MEL
LOXIMVI = test system: LOXIMVI
MEL-HO = test system: MEL-HO
MZ2-MEL = test system: MZ2-MEL
MeWo = test system: MeWo
RPMI7951 = test system: RPMI7951
RVH-421 = test system: RVH-421
SkMel28 = test system: SkMel28
SkMel2 = test system: SkMel2
SkMel30 = test system: SkMel30
SkMel5 = test system: SkMel5
UACC257 = test system: UACC257
UACC62 = test system: UACC62
WM115 = test system: WM115
WM1716 = test system: WM1716
WM1745 = test system: WM1745
WM3526 = test system: WM3526
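Note: cells treated in 1,536-well plates, then fixed and DAPI-stained, with nuclei counted from automated high-throughput microscope images.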

| SMILES | cell count (G361) [%] | cell count (IPC-298) [%] | cell count (IST-MEL1) [%] | cell count (LB2518-MEL) [%] | cell count (LOXIMVI) [%] | cell count (MEL-HO) [%] | cell count (MZ2-MEL) [%] | cell count (MeWo) [%] | cell count (RPMI7951) [%] | cell count (RVH-421) [%] | cell count (SkMel28) [%] | cell count (SkMel2) [%] | cell count (SkMel30) [%] | cell count (SkMel5) [%] | cell count (UACC257) [%] | cell count (UACC62) [%] | cell count (WM115) [%] | cell count (WM1716) [%] | cell count (WM1745) [%] | cell count (WM3526) [%] |
| --- | --- | --- | --- | --- | --- | --- | --- | --- | --- | --- | --- | --- | --- | --- | --- | --- | --- | --- | --- | --- |
| C[C@@H]1CCN(C(=O)CC#N)C[C@@H]1N(C)c1ncnc2[nH]ccc12 + Cn1cncc1[C@@](N)(c1ccc(Cl)cc1)c1ccc2c(c1)c(-c1cccc(Cl)c1)cc(=O)n2C [tipifarnib] (first compound 5 µM, partner dose 0.05 µM) | 96.5 | 98.1 | 96.4 | 77.3 | 81.9 | 99.9 | 115 | 95 | 85 | 85.9 | 110 | 76.1 | 106 | 71.1 | 97 | 71.7 | 78.8 | 73.9 | 136 | 70.4 |
| CC1(C)NC(=O)N(c2ccc([N+](=O)[O-])c(C(F)(F)F)c2)C1=O [nilutamide] + COc1ccc(-c2ccc3c(N4CCOCC4)nc(N4C[C@@H](C)O[C@@H](C)C4)nc3n2)cc1CO [KU0063794] (first compound 5 µM, partner dose 0.1 µM) | 99 | 96.5 | 117 | 114 | 87.3 | 101 | 100 | 90.4 | 124 | 113 | 106 | 91.4 | 90.5 | 73.7 | 110 | 113 | 81.7 | 102 | 84.3 | 89.1 |
| C[C@@H]1CCN(C(=O)CC#N)C[C@@H]1N(C)c1ncnc2[nH]ccc12 + COC(=O)c1sccc1S(=O)(=O)Nc1ccc(Nc2ccccc2)cc1OC [GSK0660] (first compound 5 µM, partner dose 5 µM) | 101 | 88.9 | 107 | 98.6 | 113 | 95 | 88.2 | 106 | 101 | 14.6 | 94.3 | 103 | 89.9 | 95.1 | 92.5 | 113 | 129 | 121 | 96.2 | 97.8 |
| COc1cc(Nc2ncc(F)c(Nc3ccc4c(n3)NC(=O)C(C)(C)O4)n2)cc(OC)c1OC [Tamatinib] + c1cc(-c2cnn3cc(-c4ccc(OCCN5CCCCC5)cc4)cnc23)ccn1 [Dorsomorphin] (first compound 2 µM, partner dose 2 µM) | 37.7 | 69 | 74.8 | 88.8 | 38.6 | 62.4 | 53.8 | 68.6 | 31.3 | 67.6 | 49.5 | 62.6 | 68.4 | 41.3 | 73.9 | 61.8 | 66.9 | 68.8 | 25 | 68.2 |
| C[C@@H]1CCN(C(=O)CC#N)C[C@@H]1N(C)c1ncnc2[nH]ccc12 + c1cc(-c2cnn3cc(-c4ccc(OCCN5CCCCC5)cc4)cnc23)ccn1 [Dorsomorphin] (first compound 5 µM, partner dose 2 µM) | 72.5 | 84.8 | 84.8 | 62.4 | 50.2 | 94.2 | 80 | 87.2 | 67.7 | 121 | 61.4 | 91.4 | 84.7 | 74.4 | 84.5 | 82.6 | 62 | 90.8 | 47.4 | 93.3 |
| O=C(Nc1cccc(Cl)c1)Nc1ncc(CCNc2ncnc3ccsc23)s1 + CC(C)CCN1c2nc(Nc3cc(F)c(O)c(F)c3)ncc2N(C)C(=O)C1C [BID1870] (first compound 0.004 µM, partner dose 1 µM) | 36.1 | 56.5 | 35.6 | 83 | 76.8 | 69 | 59 | 39.4 | 41.7 | 54 | 36.2 | 60.1 | 63.2 | 52.5 | 65.4 | 81.5 | 30.4 | 32.1 | 68.2 | 36.8 |
| C[C@@H]1CCN(C(=O)CC#N)C[C@@H]1N(C)c1ncnc2[nH]ccc12 + Cc1cc([N+](=O)[O-])ccc1NS(=O)(=O)c1cc(Cl)ccc1Cl [FH535] (first compound 5 µM, partner dose 5 µM) | 35.2 | 54.3 | 65.5 | 88.1 | 58.2 | 56.3 | 88.4 | 99.2 | 88.1 | 67.6 | 83.9 | 87.6 | 93.4 | 83 | 69.6 | 94.4 | 103 | 78.3 | 98.6 | 79.1 |
| Cn1cncc1[C@@](N)(c1ccc(Cl)cc1)c1ccc2c(c1)c(-c1cccc(Cl)c1)cc(=O)n2C [tipifarnib] + O=C(O)c1ccc(-c2c[nH]c3ncc(-c4ccccc4)cc23)cc1C1CCCC1 [GSK650394] (first compound 0.05 µM, partner dose 0.8 µM) | 54.2 | 79.3 | 60.2 | 64.6 | 82.3 | 82.8 | 105 | 74.7 | 63.7 | 103 | 59.7 | 72.4 | 110 | 55.3 | 83.5 | 74.1 | 56.7 | 57.4 | 83.6 | 78.1 |
| C[C@@H]1CCN(C(=O)CC#N)C[C@@H]1N(C)c1ncnc2[nH]ccc12 + COc1ccc(-c2ccc3c(N4CCOCC4)nc(N4C[C@@H](C)O[C@@H](C)C4)nc3n2)cc1CO [KU0063794] (first compound 5 µM, partner dose 0.1 µM) | 94.4 | 77.1 | 112 | 89.8 | 74.3 | 93.7 | 78 | 78.1 | 74.7 | 89.5 | 66.1 | 92.8 | 95.9 | 71.2 | 110 | 92.5 | 81.3 | 94.8 | 82.3 | 76.8 |
| CC1(C)NC(=O)N(c2ccc([N+](=O)[O-])c(C(F)(F)F)c2)C1=O [nilutamide] + Cn1cncc1[C@@](N)(c1ccc(Cl)cc1)c1ccc2c(c1)c(-c1cccc(Cl)c1)cc(=O)n2C [tipifarnib] (first compound 5 µM, partner dose 0.05 µM) | 84.4 | 81.8 | 61.3 | 64.7 | 73.2 | 88.7 | 102 | 77.8 | 64 | 77.7 | 49.7 | 55 | 88.5 | 59.9 | 88.1 | 77.5 | 53.4 | 75.4 | 70.9 | 59.3 |
| COc1cc(Nc2ncc(F)c(Nc3ccc4c(n3)NC(=O)C(C)(C)O4)n2)cc(OC)c1OC [Tamatinib] + Cc1cc([N+](=O)[O-])ccc1NS(=O)(=O)c1cc(Cl)ccc1Cl [FH535] (first compound 2 µM, partner dose 5 µM) | 34.2 | 35.6 | 42.3 | 55.2 | 52.8 | 39.3 | 27.5 | 63.9 | 38.6 | 54.4 | 32.3 | 60.5 | 64.7 | 43.7 | 50.8 | 64.7 | 70.3 | 50.9 | 32.2 | 52 |
| O=C(O)c1ccc(-c2c[nH]c3ncc(-c4ccccc4)cc23)cc1C1CCCC1 + CCN(CC)CCCCNc1ncc2cc(-c3cc(OC)cc(OC)c3)c(NC(=O)NC(C)(C)C)nc2n1 [PD173074] (first compound 0.8 µM, partner dose 0.5 µM) | 60.7 | 91.7 | 82.5 | 105 | 80.6 | 66.9 | 97.9 | 76.5 | 91.2 | 94.2 | 73.4 | 73.8 | 94.5 | 95.8 | 106 | 81.4 | 111 | 91.6 | 80.9 | 92.7 |
| O=C(Nc1cccc(Cl)c1)Nc1ncc(CCNc2ncnc3ccsc23)s1 + CCc1ccc(CCOc2ccc(CC3SC(=O)NC3=O)cc2)nc1 [pioglitazone] (first compound 0.004 µM, partner dose 10 µM) | 64.8 | 61.3 | 59.7 | 75.1 | 78.1 | 75.5 | 72.5 | 76.3 | 63.1 | 68.6 | 48.1 | 86.6 | 83.9 | 93.2 | 87.5 | 80.9 | 52.8 | 54.3 | 61.3 | 77.2 |
| O=c1[nH]nc(Sc2ncc([N+](=O)[O-])s2)n1-c1ccc2c(c1)OCCO2 + Cc1cn(-c2cc(NC(=O)c3ccc(C)c(Nc4nccc(-c5cccnc5)n4)c3)cc(C(F)(F)F)c2)cn1 [nilotinib] (first compound 1 µM, partner dose 1 µM) | 94.3 | 92.5 | 76.6 | 79.7 | 136 | 104 | 107 | 94.4 | 90.5 | 130 | 68 | 86.5 | 94.5 | 71.4 | 113 | 75.9 | 84.5 | 89.8 | 111 | 71.3 |
| O=C(Nc1cccc(Cl)c1)Nc1ncc(CCNc2ncnc3ccsc23)s1 + COc1ccc(-c2ccc3c(N4CCOCC4)nc(N4C[C@@H](C)O[C@@H](C)C4)nc3n2)cc1CO [KU0063794] (first compound 0.004 µM, partner dose 0.1 µM) | 74.8 | 74.4 | 66.2 | 78.5 | 77.6 | 61.6 | 63.2 | 66.8 | 51.4 | 69.6 | 53.1 | 73.7 | 81.6 | 47.3 | 78 | 74.2 | 45.9 | 56.6 | 74.1 | 58.9 |
| CC1(C)NC(=O)N(c2ccc([N+](=O)[O-])c(C(F)(F)F)c2)C1=O [nilutamide] + NC(=O)Nc1cc(-c2cccc(F)c2)sc1C(=O)N[C@H]1CCCNC1 [AZD7762] (first compound 5 µM, partner dose 0.1 µM) | 94.5 | 101 | 112 | 69.5 | 61.9 | 88 | 94.9 | 74.4 | 44 | 105 | 55.2 | 90.5 | 87.6 | 73.7 | 97.8 | 72.7 | 62.1 | 87.1 | 54.9 | 77.7 |
| O=C(O)c1ccc(-c2c[nH]c3ncc(-c4ccccc4)cc23)cc1C1CCCC1 + Oc1nc(-c2ccc(C(F)(F)F)cc2)nc2c1CSCC2 [XAV939] (first compound 0.8 µM, partner dose 10 µM) | 70.9 | 78.8 | 93.2 | 97.8 | 93.1 | 80.5 | 79.5 | 83.2 | 62.3 | 77.6 | 83.7 | 88 | 86.3 | 81.6 | 82.1 | 58.2 | 85.1 | 76.5 | 79.7 | 91.9 |
